Some of the results follow.
Assays:
Assay in all cases: glycan array binding signal (z-score within array); higher = stronger binding
Details in all cases: glycan notation: IUPAC condensed, linker removed
Fuc(a1-2)Gal = target: Fuc(a1-2)Gal
Method in brief: (§1)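 Glycan array data came from 3228 arrays in the Consortium for Functional Glycomics database, and only arrays with an available protein sequence were kept. Glycan names were put into IUPAC-condensed notation, and columns mapping to the same glycan were averaged. The binding signal is a within-array Z-score, averaged across arrays of one protein sequence run at different concentrations or buffers and across linkers. A negative Z-score can be read as non-binding.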

Fuc(a1-2)Gal(b1-3)GalNAc = target: Fuc(a1-2)Gal(b1-3)GalNAc
Method in brief: as §1

[1] = target: Fuc(a1-2)Gal(b1-3)GalNAc(a1-3)[Fuc(a1-2)]Gal(b1-4)Glc
Method in brief: as §1

[2] = target: Fuc(a1-2)Gal(b1-3)GalNAc(a1-3)[Fuc(a1-2)]Gal(b1-4)GlcNAc
Method in brief: as §1

[3] = target: Fuc(a1-2)Gal(b1-3)GalNAc(b1-3)Gal
Method in brief: as §1

[4] = target: Fuc(a1-2)Gal(b1-3)GalNAc(b1-3)Gal(a1-4)Gal(b1-4)Glc
Method in brief: as §1

[5] = target: Fuc(a1-2)Gal(b1-3)GalNAc(b1-4)[Neu5Ac(a2-3)]Gal(b1-4)Glc
Method in brief: as §1

Fuc(a1-2)Gal(b1-3)GlcNAc = target: Fuc(a1-2)Gal(b1-3)GlcNAc
Method in brief: as §1

[6] = target: Fuc(a1-2)Gal(b1-3)GlcNAc(b1-2)Man(a1-3)[Fuc(a1-2)Gal(b1-3)GlcNAc(b1-2)Man(a1-6)]Man(b1-4)GlcNAc(b1-4)GlcNAc
Method in brief: as §1

[7] = target: Fuc(a1-2)Gal(b1-3)GlcNAc(b1-2)Man(a1-3)[Fuc(a1-2)Gal(b1-3)GlcNAc(b1-2)Man(a1-6)]Man(b1-4)GlcNAc(b1-4)[Fuc(a1-6)]GlcNAc
Method in brief: as §1

[8] = target: Fuc(a1-2)Gal(b1-3)GlcNAc(b1-3)Gal(b1-4)Glc
Method in brief: as §1

[9] = target: Fuc(a1-2)Gal(b1-3)GlcNAc(b1-3)GalNAc
Method in brief: as §1

[10] = target: Fuc(a1-2)Gal(b1-3)GlcNAc(b1-3)[Fuc(a1-2)Gal(b1-3)GlcNAc(b1-6)]GalNAc
Method in brief: as §1

[11] = target: Fuc(a1-2)Gal(b1-3)GlcNAc(b1-3)[Fuc(a1-3)[Gal(b1-4)]GlcNAc(b1-6)]Gal(b1-4)Glc
Method in brief: as §1

[12] = target: Fuc(a1-2)Gal(b1-3)GlcNAc(b1-3)[Gal(b1-4)GlcNAc(b1-6)]Gal(b1-4)Glc
Method in brief: as §1

[13] = target: Fuc(a1-2)Gal(b1-3)GlcNAc(b1-3)[Neu5Ac(a2-6)Gal(b1-4)GlcNAc(b1-6)]Gal(b1-4)Glc
Method in brief: as §1

[14] = target: Fuc(a1-2)Gal(b1-3)GlcNAc6S
Method in brief: as §1

[15] = target: Fuc(a1-2)Gal(b1-3)[Fuc(a1-4)]GlcNAc
Method in brief: as §1

[16] = target: Fuc(a1-2)Gal(b1-3)[Fuc(a1-4)]GlcNAc(b1-2)Man(a1-3)[Fuc(a1-2)Gal(b1-3)[Fuc(a1-4)]GlcNAc(b1-2)Man(a1-3)]Man(b1-4)GlcNAc(b1-4)GlcNAc
Method in brief: as §1

[17] = target: Fuc(a1-2)Gal(b1-3)[Fuc(a1-4)]GlcNAc(b1-2)Man(a1-3)[Fuc(a1-2)Gal(b1-3)[Fuc(a1-4)]GlcNAc(b1-2)Man(a1-6)]Man(b1-4)GlcNAc(b1-4)GlcNAc
Method in brief: as §1

[18] = target: Fuc(a1-2)Gal(b1-3)[Fuc(a1-4)]GlcNAc(b1-2)Man(a1-3)[Fuc(a1-2)Gal(b1-3)[Fuc(a1-4)]GlcNAc(b1-2)Man(a1-6)]Man(b1-4)GlcNAc(b1-4)[Fuc(a1-6)]GlcNAc(b1-4)[Fuc(a1-6)]GlcNAc
Method in brief: as §1

[19] = target: Fuc(a1-2)Gal(b1-3)[Fuc(a1-4)]GlcNAc(b1-3)[Fuc(a1-3)[Gal(b1-4)]GlcNAc(b1-6)]Gal(b1-4)Glc
Method in brief: as §1

[20] = target: Fuc(a1-2)Gal(b1-3)[Fuc(a1-4)]GlcNAc(b1-3)[Gal(b1-4)GlcNAc(b1-6)]Gal(b1-4)Glc
Method in brief: as §1

[21] = target: Fuc(a1-2)Gal(b1-4)Fuc(a1-3)]GlcNAc(b1-2)Man(a1-3)[Fuc(a1-2)Gal(b1-4)[Fuc(a1-3)]GlcNAc(b1-2)Man(a1-6)]Man(b1-4)GlcNAc(b1-4)GlcNAc
Method in brief: as §1

Fuc(a1-2)Gal(b1-4)Glc = target: Fuc(a1-2)Gal(b1-4)Glc
Method in brief: as §1

Fuc(a1-2)Gal(b1-4)Glc6S = target: Fuc(a1-2)Gal(b1-4)Glc6S
Method in brief: as §1

Fuc(a1-2)Gal(b1-4)GlcNAc = target: Fuc(a1-2)Gal(b1-4)GlcNAc
Method in brief: as §1

[22] = target: Fuc(a1-2)Gal(b1-4)GlcNAc(b1-2)Man
Method in brief: as §1

[23] = target: Fuc(a1-2)Gal(b1-4)GlcNAc(b1-2)Man(a1-3)[Fuc(a1-2)Gal(b1-4)GlcNAc(b1-2)Man(a1-6)]Man(b1-4)GlcNAc(b1-4)GlcNAc
Method in brief: as §1

[24] = target: Fuc(a1-2)Gal(b1-4)GlcNAc(b1-2)Man(a1-3)[Fuc(a1-2)Gal(b1-4)GlcNAc(b1-2)Man(a1-6)]Man(b1-4)GlcNAc(b1-4)[Fuc(a1-6)]GlcNAc
Method in brief: as §1

[25] = target: Fuc(a1-2)Gal(b1-4)GlcNAc(b1-2)[Fuc(a1-2)Gal(b1-4)GlcNAc(b1-4)]Man(a1-3)[Fuc(a1-2)Gal(b1-4)GlcNAc(b1-2)Man(a1-6)]Man(b1-4)GlcNAc(b1-4)GlcNAc
Method in brief: as §1

[26] = target: Fuc(a1-2)Gal(b1-4)GlcNAc(b1-3)Gal(b1-4)GlcNAc
Method in brief: as §1

[27] = target: Fuc(a1-2)Gal(b1-4)GlcNAc(b1-3)Gal(b1-4)GlcNAc(b1-2)Man(a1-3)[Fuc(a1-2)Gal(b1-4)GlcNAc(b1-3)Gal(b1-4)GlcNAc(b1-2)Man(a1-6)]Man(b1-4)GlcNAc(b1-4)GlcNAc
Method in brief: as §1

[28] = target: Fuc(a1-2)Gal(b1-4)GlcNAc(b1-3)Gal(b1-4)GlcNAc(b1-3)Gal(b1-4)GlcNAc
Method in brief: as §1

[29] = target: Fuc(a1-2)Gal(b1-4)GlcNAc(b1-3)GalNAc
Method in brief: as §1

[30] = target: Fuc(a1-2)Gal(b1-4)GlcNAc(b1-3)[Fuc(a1-2)Gal(b1-4)GlcNAc(b1-6)]GalNAc
Method in brief: as §1

[31] = target: Fuc(a1-2)Gal(b1-4)GlcNAc(b1-3)[Fuc(a1-3)[Gal(b1-4)]GlcNAc(b1-6)]Gal(b1-4)Glc
Method in brief: as §1

B1: rAAL-2 (Agrocybe aegerita) (protein)
chain: MTSNVITQDLPIPVASRGFADIVGFGLDGVVIGRNAVNLQPFLAVKNFAQNAGGWLTTKHVRLIADTTGTGKGDIVGFGNAGVYVSVNNGKNTFADPPKMVIANFGYDAGGWRVEKHLRYLADIRKIGRADIIGFGEKGVLVSRNNGGLNFGPATLVLKDFGYDAGGWRLDRHLRFLADVTGNGHLDIVGFGDKHVFISRNNGDGTFAPAKSVIDNFCIDAGGWKIGDHPRFVADLTGDGTADIIGCGKAGCWVALNNGGGVFGQVKLVINDFGTDKGWQAAKHPRFIADLTGNGRGDVVGFGNAGVYVALNNGDGTFQSAKLVLKDFGVQQGWTVSKHRRFVVDLTGDGCADIIGFGEKETLVSYNDGKGNFGPVKALTNDFSFSGGKWAPETTVCWMANLDSSRH
- glycan array binding signal (z-score) (Fuc(a1-2)Gal): -0.336
- glycan array binding signal (z-score) (Fuc(a1-2)Gal(b1-3)GalNAc): -0.253
- glycan array binding signal (z-score) [1]: -0.341
- glycan array binding signal (z-score) [2]: -0.201
- glycan array binding signal (z-score) [3]: -0.208
- glycan array binding signal (z-score) [4]: -0.123
- glycan array binding signal (z-score) [5]: -0.336
- glycan array binding signal (z-score) (Fuc(a1-2)Gal(b1-3)GlcNAc): -0.264
- glycan array binding signal (z-score) [6]: -0.092
- glycan array binding signal (z-score) [7]: -0.075
- glycan array binding signal (z-score) [8]: -0.219
- glycan array binding signal (z-score) [9]: -0.137
- glycan array binding signal (z-score) [10]: -0.087
- glycan array binding signal (z-score) [11]: -0.23
- glycan array binding signal (z-score) [12]: -0.312
- glycan array binding signal (z-score) [13]: -0.228
- glycan array binding signal (z-score) [14]: -0.444
- glycan array binding signal (z-score) [15]: -0.348
- glycan array binding signal (z-score) [16]: 0.08
- glycan array binding signal (z-score) [17]: -0.176
- glycan array binding signal (z-score) [18]: 0.099
- glycan array binding signal (z-score) [19]: -0.358
- glycan array binding signal (z-score) [20]: -0.046
- glycan array binding signal (z-score) [21]: 0.288
- glycan array binding signal (z-score) (Fuc(a1-2)Gal(b1-4)Glc): -0.334
- glycan array binding signal (z-score) (Fuc(a1-2)Gal(b1-4)Glc6S): -0.173
- glycan array binding signal (z-score) (Fuc(a1-2)Gal(b1-4)GlcNAc): -0.344
- glycan array binding signal (z-score) [22]: -0.247
- glycan array binding signal (z-score) [23]: -0.013
- glycan array binding signal (z-score) [24]: -0.215
- glycan array binding signal (z-score) [25]: -0.099
- glycan array binding signal (z-score) [26]: -0.31
- glycan array binding signal (z-score) [27]: -0.083
- glycan array binding signal (z-score) [28]: -0.25
- glycan array binding signal (z-score) [29]: -0.181
- glycan array binding signal (z-score) [30]: -0.373
- glycan array binding signal (z-score) [31]: -0.159

Reference: the supplement of paper PMC8728848
